Laboratory results taken from PubChem BioAssay AID485344 (National Center for Advancing Translational Sciences (NCATS), 2010).
In all, about 340,000 compounds went through this assay and about 6,900 (2%) were called active. Cut-off read from the data, not from the text of the source: active = inhibition above about 30%; inactive = below that, where a call was filed. The list shows a part of the results, in another mix than the full data. Entries without a call were filed so in the source.

These molecules were tested against D(2) dopamine receptor (Homo sapiens) (UniProt P14416) (assay: HTS Assay for Allosteric Antagonists of the Human D2 Dopamine Receptor: Primary Screen for Antagonists). Settings: HEK293 TREx D2 cells, calcium flux, dopamine EC80; at 10 µM; stronger effect = higher value.
Method in brief: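 In this primary screen, negative modulation is detected by tracking calcium flux after an EC80 dopamine challenge in inducible HEK293 T-REx D2 cells preexposed to test compound for 180 s.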
Note: 0% is about no effect.

Chain of UniProt P14416 (P14416 whole entry, looked up): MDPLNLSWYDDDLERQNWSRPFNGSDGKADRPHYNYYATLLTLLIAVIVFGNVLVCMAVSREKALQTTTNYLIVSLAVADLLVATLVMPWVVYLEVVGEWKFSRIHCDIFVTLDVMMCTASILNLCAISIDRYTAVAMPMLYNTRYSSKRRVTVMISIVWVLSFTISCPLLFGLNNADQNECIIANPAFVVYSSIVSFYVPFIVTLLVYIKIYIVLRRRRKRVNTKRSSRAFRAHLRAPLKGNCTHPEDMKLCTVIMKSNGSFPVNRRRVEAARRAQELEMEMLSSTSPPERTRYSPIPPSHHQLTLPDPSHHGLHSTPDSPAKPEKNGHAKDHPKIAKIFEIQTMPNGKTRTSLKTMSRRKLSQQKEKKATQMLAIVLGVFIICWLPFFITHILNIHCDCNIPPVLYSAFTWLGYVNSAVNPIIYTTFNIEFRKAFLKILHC

SMILES	inhibition
COc1ccc(C2=CC(c3cc(Br)ccc3F)n3c(nc4ccccc43)N2)cc1 (centres undefined)	-24.4%
Cc1oc(-c2ccc(C(=O)Nc3ccc(F)cc3)cc2)nc1COc1ccccc1	0.302%
O=C(COc1ccccc1Cl)Nc1ccc(-c2nc3ccccc3s2)cc1	-24.2%
CC1CCCN(c2cc3c(cc2F)c(=O)c(S(=O)(=O)c2cccc(Cl)c2)cn3Cc2ccccc2)C1 (centres undefined)	13.5%
C[C@H](NC(=O)c1ccccc1)C(=O)N1CCN(c2ccccc2)CC1	active: 30.4%
CCOC(=O)c1c(NC(=O)c2cc(-c3ccc(Br)cc3)on2)sc(C(C)=O)c1C	-5.85%
CCOC(=O)N1CCN(Cc2nc3cc(NC(C)=O)ccc3n2C)CC1	active: 31.3%
COc1ccc(NC(=O)c2cc3ccccc3o2)c(OC)c1	-1.78%
O=C(c1ccc(F)cc1)c1cn(Cc2ccccc2)c2cc3c(cc2c1=O)OCO3	20.7%
COc1ccccc1CNc1nc2c(S(=O)(=O)c3ccc(C)c(C)c3)nnn2c2ccc(Cl)cc12	4.34%
O=C(Cn1c(=O)oc2cc(S(=O)(=O)NCc3ccccc3)ccc21)Nc1cccc(F)c1	-5.67%
O=C(NC1CCSC1=O)c1cccc(C(=O)NC2CCSC2=O)c1 (centres undefined)	active: 42%
COc1ccc2ccccc2c1CNC(C)CCc1ccccc1 (centres undefined)	active: 30.1%
COc1ccc(NC(=O)C(NS(=O)(=O)c2cccc3nsnc23)C(C)C)cc1 (centres undefined)	-1.05%
COc1ccccc1C(=O)Nc1ccc2nc(SCCOc3ccccc3C)sc2c1	-7.45%
Cc1ncc(CN2CCC(CO)(CCc3ccccc3)CC2)s1	active: 81.1%
CC(C)c1ccc(N2C(=O)CSC23C(=O)N(Cc2cccc(F)c2)c2ccccc23)cc1 (centres undefined)	6.97%
CN(C)CC(O)COc1cccc(OCC(O)CN(C)C)c1 (centres undefined)	active: 54.9%
COc1ccc(OC)c(CNC(=O)C2CCCN(c3ncnc4onc(-c5ccc(F)cc5)c34)C2)c1 (centres undefined)	-5.24%
Fc1ccc(NCc2nnc3n2CCCCC3)cc1Cl	-12.7%
CCC(C(=O)NCc1cc(OC)ccc1OC)n1nc(C)c2sc3ccccc3c2c1=O (centres undefined)	0.766%
O=C1CCSc2ccc(Cl)cc2N1Cc1cccc(Cl)c1	active: 33.3%
COc1cccc(C(=O)N2CCC(C(=O)Nc3cccc(Cl)c3)CC2)c1	26.4%
Cc1cccc(CNC(=O)c2ccc(N3Cc4ccccc4Oc4ncccc43)s2)c1	2.99%

SMILES	inhibition
CN(C)c1cccc(C(=O)N2CCC(c3c[nH]c4ccccc34)(c3c[nH]c4ccccc34)CC2)c1	4.9%
O=C(COCc1cc(-c2cccs2)on1)N1CCN(c2ccccc2)CC1	2.18%
COc1cc(C(=O)Nc2ccc(NC(=O)c3ccc(C(C)(C)C)cc3)cc2)cc(OC)c1OC	2.39%
O=C(CCc1ccccc1)NNC(=O)Nc1ccccc1	active: 43.6%
CC(=O)c1ccc(NC(=S)N2CCC(Cc3ccccc3)CC2)cc1	active: 32.5%
COc1ccc2ccccc2c1CN1CCN(C(=O)c2ccco2)CC1	active: 88.5%
O=C1c2oc3ccccc3c(=O)c2C(c2cccc(O)c2)N1c1nncs1 (centres undefined)	-11.5%
O=C(CC1SC(N2CCOCC2)=NC1=O)Nc1ccc(Cl)cc1 (centres undefined)	active: 58.2%
CCOC(=O)c1c(-c2ccc(C)cc2)csc1NC(=O)c1cc(=O)c2cc(C)ccc2o1	2.06%
O=C(Cn1c(=O)nc(-c2ccccc2)c2ccccc21)NCCc1ccccc1	-8.47%
CC(=O)c1ccc(NC(=O)CN2C(=O)CN(C)C(=O)c3ccccc32)cc1	7.23%
COc1cc(Nc2nc(SCc3ccc(Cl)cc3)nc3ccccc23)cc(OC)c1	-2.66%
COc1ccc(-c2oc3ncn4nc(COc5cccc(C)c5C)nc4c3c2-c2ccc(OC)cc2)cc1	9.76%
COc1cccc(CNC(=O)C2=C(C)C(=O)OC23CCN(C(C)=O)CC3)c1OC	-11.6%
COc1cccc(C(=O)Nc2nc3nc(-c4ccccc4)cc(=O)n3[nH]2)c1	8.02%
Nc1ccc(C(=O)N2CCN(S(=O)(=O)c3ccc(Br)cc3)CC2)cc1[N+](=O)[O-]	active: 34.7%
COc1ccc(NC(=O)C2CCN(S(=O)(=O)c3ccc4c(c3)CCCC(=O)N4)CC2)cc1OC	5.9%
O=C(Nc1ccccc1C(=O)OCc1cc(=O)n2c3c(sc2n1)CCCC3)c1ccc(F)cc1	11%
COc1ccc(-c2nc(SCC(=O)Nc3ccc4c(c3)OCCO4)c(-c3ccc(F)cc3)[nH]2)cc1	16.3%
Cc1cccc(C(C)C)c1NC(=O)Cn1c(=O)oc2cc(S(=O)(=O)N3CCCC3)ccc21	4.75%
CCc1ccc2nc(N(CCN(CC)CC)C(=O)c3cccs3)sc2c1	-0.852%
Cc1ccc(-c2nc(S(=O)(=O)c3ccccc3)c(N3CCN(c4ccccc4)CC3)o2)cc1	13.6%
Cc1ccc2nc(COc3ccccc3NC(=O)COc3ccc(F)cc3)cc(=O)n2c1	16.1%
COc1ccccc1N1CCN(C(=O)c2cc(CC(C)C)on2)CC1	5.16%

SMILES	inhibition
CCc1ccccc1N(CC)C(=O)c1c(C)oc2ncn(C)c(=O)c12	-1.16%
COc1ccc(-n2ccnc2SCC(=O)Nc2ccc3c(c2)OCO3)cc1	0.369%
CC(C)(C)C1CCc2c(sc(NC(=O)Cn3nnc(-c4ccccc4Cl)n3)c2C#N)C1 (centres undefined)	2.33%
Cc1cccc(N2CCN(C(=O)CS(=O)(=O)c3cccc4nsnc34)CC2)c1C	-4.9%
Cc1ccc(Cl)cc1N1CCN(C(=O)C2CCC(CNS(=O)(=O)c3cccs3)CC2)CC1 (centres undefined)	2.93%
CCOC(=O)c1c(C)[nH]c(C)c1S(=O)(=O)N1CCC(C(=O)Nc2cc(C)ccn2)CC1	10.3%
Cc1ccc(CNc2ccc(-c3nc(-c4ccncc4)no3)cc2[N+](=O)[O-])cc1	15.4%
COc1ccc(OC)c(C(=O)CC2(O)C(=O)N(Cc3ccccc3C)c3ccccc32)c1 (centres undefined)	-15.9%
CCOc1ccccc1CNC(=O)CCc1c(C)nn(-c2ccc(N3CCCC3)nn2)c1C	18.5%
O=C(CCC(=O)Nc1ccc(F)cc1)N/N=C/c1ccccc1O	active: 33.5%
Cc1ccc(S(=O)(=O)C2(C(=O)Nc3ccc(Cl)c(C(F)(F)F)c3)CC2)cc1	-7.4%
CCOC(=O)c1cccc(NC(=O)CCS(=O)(=O)c2ccc3c(c2)CC(=O)N3C)c1	-0.418%
Cc1c(C(=O)N2CCOCC2)oc2c1-c1nn(CC(=O)NCc3cccc(F)c3)cc1CC2	-5.51%
COC(=O)c1ccc(Cl)cc1NC(=O)NCCc1c(C)nn(C)c1C	12.8%
CC(C)c1ccc(NC(=O)Cn2c(=O)n(CC3CCC(C(=O)NCCc4ccccc4)CC3)c(=O)c3ccccc32)cc1 (centres undefined)	-15.9%
Cc1ccc(S(=O)(=O)Nc2ccc3c(c2)nc(CCN2CCN(c4ccccn4)CC2)n3C)cc1	active: 51.2%
COc1ccccc1CNC(=O)Cn1c(=O)nc(-c2ccccc2F)c2cc(Cl)ccc21	7.35%
Cc1ccc(-n2c(=O)c3cccnc3n2CC(=O)Nc2cc(C)cc(C)c2)cc1	1.97%
COc1cc(OC)cc(C(=O)Nc2cc3c(cc2N2CCOCC2)n(C)c(=O)n3C)c1	-9.02%
COc1ccc(-n2nc3cc(C)c(NC(=O)c4ccc(-c5ccc(Br)cc5)o4)cc3n2)cc1	-9.66%
CC(=O)N1CCCc2cc(S(=O)(=O)N3CCCC(C(=O)Nc4ccc(C)cc4C)C3)ccc21 (centres undefined)	-7.41%
COc1ccc(-c2cc(C(F)(F)F)nc(N3CCN(C)CC3)n2)cc1	active: 39.3%
Cc1cccc(NC(=O)CN2C(=O)C(c3ccccc3)=NC23CCC(C)CC3)c1 (centres undefined)	-6.38%
CC(=O)c1cccc(-n2c(=O)c3c4c(sc3n(Cc3cccc(C)c3)c2=O)CN(C(C)=O)CC4)c1	7.24%

SMILES	inhibition
Cc1cc(C)n(CCc2nc3c4ccccc4nc(N4CCN(c5cccc(C)c5C)CC4)n3n2)n1	-6.34%
CCn1cc2nc(SCC(=O)Nc3ccc(C)cc3)n(Cc3ccc(C)cc3)c(=O)c2n1	-5.64%
Cc1[nH]c2ccc(Br)cc2c1CCNC(=O)c1cc2ccccc2oc1=O	11.6%
COC(=O)CN1C(=O)C(C)(C)c2cc(S(=O)(=O)Nc3ccc(Br)cc3F)ccc21	-5.06%
Cc1cc(F)ccc1Oc1cc(NN2CCCCC2)c([N+](=O)[O-])cc1[N+](=O)[O-]	active: 30.4%
CCN(CC)c1ccc(NC(=O)CN2CCN(c3ccccc3F)CC2)cc1	7.74%
CCOc1ccc(C2=NC(c3cccs3)=Nc3ccc(CC)cc3N2)cc1OCC	3.77%
Cc1ccc(CCNC(=O)c2ccc3[nH]c(C)c(C)c3c2)cc1	23.5%
Cc1cc(C)cc(-n2cnc3cc(C(=O)NC4CCCCCC4)ccc32)c1	-12%
Cc1cc(OCC(=O)NC2CCN(Cc3ccccc3)CC2)c2c(C)cc(=O)oc2c1	active: 54.3%
COc1ccc(CCNC(=O)c2cc3n(n2)CCCN(Cc2ccc(C)cc2)C3=O)cc1OC	2.26%
O=C(NCCN1CCN(c2cccc(Cl)c2)CC1)c1ccc(CSc2nc3ccncc3[nH]2)cc1	active: 86.2%
CCCCN(C)CCCNC(=O)C1CCN(S(=O)(=O)CC)CC1	-26.5%
Cc1c2cnn(CC(=O)N3CCN(c4ccccc4)CC3)c(=O)c2c(C)n1Cc1ccccc1Cl	20.9%
CSc1ncc(Cl)c(C(=O)Nc2ccc(S(=O)(=O)Nc3nccc(C)n3)cc2)n1	-0.934%
CCOC(=O)C1(CC2CC2)CCN(Cc2ccc3cccc(F)c3n2)CC1	active: 65.2%
CCCCN(C)CCCNC(=O)CN1N=C(c2ccc(OC)cc2)CCC1=O	-19.9%
CC(=O)C1=C(c2ccccc2)N(C(C)=O)n2c(nnc2C2CCCCC2)S1	10.7%
CC(=O)c1ccc(NC(=O)CCc2c(C)nc3c(c2C)c(=O)n(C)c(=O)n3C)cc1	-0.137%
COc1ccc(NC(=O)c2cc(C)nc3c2c(C)nn3-c2ccc(C)cc2)cc1OC	7.02%
CCOc1ccc(NC(=O)CN2CCN(S(=O)(=O)c3ccc(OC)cc3)CC2)cc1	3.99%
CCOc1cc(OCC)cc(C(=O)Nc2cccc(-c3nc4ccccc4[nH]3)c2)c1	13.3%
